The list shows a part of the results.
molecular target: no compound (DMSO); assay: log2 fold change of degron read counts, EGFP-low vs EGFP+ sorted cells; higher = lower degron-EGFP level without compound (poor expression or instability); details: compound: DMSO control; 18 h
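Note: jurkat cells carrying a lentiviral library of mutant zinc finger degrons fused to EGFP plus mCherry, mCherry+ cells FACS sorted, degron abundance counted by next-generation sequencing.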

Row | Sequence | log2 fold change of degron read counts
1 | FYCPICGRKFTQKGNLLRHIKL | -2.89
2 | FECDQCGAFFTQKGNLLRHIKL | -0.908
3 | FSCEQCGAVFTQKGNLLRHIKL | -2.04
4 | FFCPICGAFFTQKGNLLRHIKL | 1.46
5 | LCCNQCGFDCTQKGNLLRHIKL | -0.289
6 | FKCDQCGAVFTQKGNLLRHIKL | -1.73
7 | FFCEVCGAGFTQKGNLLRHIKL | -1.13
8 | FHCNQCGHAFTQKGNLLRHIKL | -0.253
9 | FACPQCGAMFTQKGNLLRHIKL | -0.558
10 | FICNQCGAIFTQKGNLLRHIKL | -0.0632
11 | FHCPICGRYFTQKGNLLRHIKL | -0.797
12 | FTCNICGAHFTQKGNLLRHIKL | -0.831
13 | FLCNQCGHWFTQKGNLLRHIKL | 1.19
14 | FYCPQCGARFTQKGNLLRHIKL | -0.333
15 | FVCNVCGAHFTQKGNLLRHIKL | -0.668
16 | LKCPICGFQCTQKGNLLRHIKL | 0.469
17 | FWCEQCGADFTQKGNLLRHIKL | -1.05
18 | LECNQCGFFCTQKGNLLRHIKL | 0.418
19 | LLCNQCGFLCTQKGNLLRHIKL | 1.16
20 | FECNQCGHHFTQKGNLLRHIKL | -0.622
21 | FHCPICGRMFTQKGNLLRHIKL | -1.19
22 | FQCPICGHQFTQKGNLLRHIKL | -0.0717
23 | FKCPVCGAEFTQKGNLLRHIKL | -0.641
24 | FGCNQCGRPFTQKGNLLRHIKL | 1.11
25 | LTCNQCGFACTQKGNLLRHIKL | 0.316

Row | Sequence | log2 fold change of degron read counts
26 | LHCPICGFVCTQKGNLLRHIKL | 0.756
27 | FCCPVCGAYFTQKGNLLRHIKL | 0.488
28 | FSCEVCGACFTQKGNLLRHIKL | -0.881
29 | LCCPICGFPCTQKGNLLRHIKL | 1.69
30 | LQCPICGFPCTQKGNLLRHIKL | 1.65
31 | FVCPICGHGFTQKGNLLRHIKL | -0.554
32 | LMCNQCGFICTQKGNLLRHIKL | 1.37
33 | FYCDQCGADFTQKGNLLRHIKL | -1.55
34 | FGCPICGHFFTQKGNLLRHIKL | 0.91
35 | FGCDQCGAFFTQKGNLLRHIKL | 0.0549
36 | FQCPQCGAQFTQKGNLLRHIKL | -0.784
37 | FFCEVCGAYFTQKGNLLRHIKL | 0.0203
38 | FRCPICGADFTQKGNLLRHIKL | 0.305
39 | LDCPICGFDCTQKGNLLRHIKL | 0.521
40 | FKCEQCGASFTQKGNLLRHIKL | -2.68
41 | FLCNQCGRYFTQKGNLLRHIKL | 0.565
42 | FECPICGRFFTQKGNLLRHIKL | 0.528
43 | LTCPICGFWCTQKGNLLRHIKL | 1.32
44 | FSCPQCGASFTQKGNLLRHIKL | -2.44
45 | FDCPICGAAFTQKGNLLRHIKL | -1.23
46 | LWCPICGFWCTQKGNLLRHIKL | 3.05
47 | LKCEICGFECTQKGNLLRHIKL | -0.97
48 | FGCPICGRVFTQKGNLLRHIKL | 0.202
49 | FWCEICGRAFTQKGNLLRHIKL | -0.145
50 | FVCPICGAMFTQKGNLLRHIKL | 0.707
